From publication PMC3748711
These are yes or no findings as the source states them, for the method shown. For some of these results: Binding seen in cells or lysates may run through a third protein. Some entries that bind do so weakly or less than the wild type.

The chains behind the UniProt entries cited, without tags or fusion partners. Residues count along the entry.
UniProt Q91ZX7, residues 20-4545: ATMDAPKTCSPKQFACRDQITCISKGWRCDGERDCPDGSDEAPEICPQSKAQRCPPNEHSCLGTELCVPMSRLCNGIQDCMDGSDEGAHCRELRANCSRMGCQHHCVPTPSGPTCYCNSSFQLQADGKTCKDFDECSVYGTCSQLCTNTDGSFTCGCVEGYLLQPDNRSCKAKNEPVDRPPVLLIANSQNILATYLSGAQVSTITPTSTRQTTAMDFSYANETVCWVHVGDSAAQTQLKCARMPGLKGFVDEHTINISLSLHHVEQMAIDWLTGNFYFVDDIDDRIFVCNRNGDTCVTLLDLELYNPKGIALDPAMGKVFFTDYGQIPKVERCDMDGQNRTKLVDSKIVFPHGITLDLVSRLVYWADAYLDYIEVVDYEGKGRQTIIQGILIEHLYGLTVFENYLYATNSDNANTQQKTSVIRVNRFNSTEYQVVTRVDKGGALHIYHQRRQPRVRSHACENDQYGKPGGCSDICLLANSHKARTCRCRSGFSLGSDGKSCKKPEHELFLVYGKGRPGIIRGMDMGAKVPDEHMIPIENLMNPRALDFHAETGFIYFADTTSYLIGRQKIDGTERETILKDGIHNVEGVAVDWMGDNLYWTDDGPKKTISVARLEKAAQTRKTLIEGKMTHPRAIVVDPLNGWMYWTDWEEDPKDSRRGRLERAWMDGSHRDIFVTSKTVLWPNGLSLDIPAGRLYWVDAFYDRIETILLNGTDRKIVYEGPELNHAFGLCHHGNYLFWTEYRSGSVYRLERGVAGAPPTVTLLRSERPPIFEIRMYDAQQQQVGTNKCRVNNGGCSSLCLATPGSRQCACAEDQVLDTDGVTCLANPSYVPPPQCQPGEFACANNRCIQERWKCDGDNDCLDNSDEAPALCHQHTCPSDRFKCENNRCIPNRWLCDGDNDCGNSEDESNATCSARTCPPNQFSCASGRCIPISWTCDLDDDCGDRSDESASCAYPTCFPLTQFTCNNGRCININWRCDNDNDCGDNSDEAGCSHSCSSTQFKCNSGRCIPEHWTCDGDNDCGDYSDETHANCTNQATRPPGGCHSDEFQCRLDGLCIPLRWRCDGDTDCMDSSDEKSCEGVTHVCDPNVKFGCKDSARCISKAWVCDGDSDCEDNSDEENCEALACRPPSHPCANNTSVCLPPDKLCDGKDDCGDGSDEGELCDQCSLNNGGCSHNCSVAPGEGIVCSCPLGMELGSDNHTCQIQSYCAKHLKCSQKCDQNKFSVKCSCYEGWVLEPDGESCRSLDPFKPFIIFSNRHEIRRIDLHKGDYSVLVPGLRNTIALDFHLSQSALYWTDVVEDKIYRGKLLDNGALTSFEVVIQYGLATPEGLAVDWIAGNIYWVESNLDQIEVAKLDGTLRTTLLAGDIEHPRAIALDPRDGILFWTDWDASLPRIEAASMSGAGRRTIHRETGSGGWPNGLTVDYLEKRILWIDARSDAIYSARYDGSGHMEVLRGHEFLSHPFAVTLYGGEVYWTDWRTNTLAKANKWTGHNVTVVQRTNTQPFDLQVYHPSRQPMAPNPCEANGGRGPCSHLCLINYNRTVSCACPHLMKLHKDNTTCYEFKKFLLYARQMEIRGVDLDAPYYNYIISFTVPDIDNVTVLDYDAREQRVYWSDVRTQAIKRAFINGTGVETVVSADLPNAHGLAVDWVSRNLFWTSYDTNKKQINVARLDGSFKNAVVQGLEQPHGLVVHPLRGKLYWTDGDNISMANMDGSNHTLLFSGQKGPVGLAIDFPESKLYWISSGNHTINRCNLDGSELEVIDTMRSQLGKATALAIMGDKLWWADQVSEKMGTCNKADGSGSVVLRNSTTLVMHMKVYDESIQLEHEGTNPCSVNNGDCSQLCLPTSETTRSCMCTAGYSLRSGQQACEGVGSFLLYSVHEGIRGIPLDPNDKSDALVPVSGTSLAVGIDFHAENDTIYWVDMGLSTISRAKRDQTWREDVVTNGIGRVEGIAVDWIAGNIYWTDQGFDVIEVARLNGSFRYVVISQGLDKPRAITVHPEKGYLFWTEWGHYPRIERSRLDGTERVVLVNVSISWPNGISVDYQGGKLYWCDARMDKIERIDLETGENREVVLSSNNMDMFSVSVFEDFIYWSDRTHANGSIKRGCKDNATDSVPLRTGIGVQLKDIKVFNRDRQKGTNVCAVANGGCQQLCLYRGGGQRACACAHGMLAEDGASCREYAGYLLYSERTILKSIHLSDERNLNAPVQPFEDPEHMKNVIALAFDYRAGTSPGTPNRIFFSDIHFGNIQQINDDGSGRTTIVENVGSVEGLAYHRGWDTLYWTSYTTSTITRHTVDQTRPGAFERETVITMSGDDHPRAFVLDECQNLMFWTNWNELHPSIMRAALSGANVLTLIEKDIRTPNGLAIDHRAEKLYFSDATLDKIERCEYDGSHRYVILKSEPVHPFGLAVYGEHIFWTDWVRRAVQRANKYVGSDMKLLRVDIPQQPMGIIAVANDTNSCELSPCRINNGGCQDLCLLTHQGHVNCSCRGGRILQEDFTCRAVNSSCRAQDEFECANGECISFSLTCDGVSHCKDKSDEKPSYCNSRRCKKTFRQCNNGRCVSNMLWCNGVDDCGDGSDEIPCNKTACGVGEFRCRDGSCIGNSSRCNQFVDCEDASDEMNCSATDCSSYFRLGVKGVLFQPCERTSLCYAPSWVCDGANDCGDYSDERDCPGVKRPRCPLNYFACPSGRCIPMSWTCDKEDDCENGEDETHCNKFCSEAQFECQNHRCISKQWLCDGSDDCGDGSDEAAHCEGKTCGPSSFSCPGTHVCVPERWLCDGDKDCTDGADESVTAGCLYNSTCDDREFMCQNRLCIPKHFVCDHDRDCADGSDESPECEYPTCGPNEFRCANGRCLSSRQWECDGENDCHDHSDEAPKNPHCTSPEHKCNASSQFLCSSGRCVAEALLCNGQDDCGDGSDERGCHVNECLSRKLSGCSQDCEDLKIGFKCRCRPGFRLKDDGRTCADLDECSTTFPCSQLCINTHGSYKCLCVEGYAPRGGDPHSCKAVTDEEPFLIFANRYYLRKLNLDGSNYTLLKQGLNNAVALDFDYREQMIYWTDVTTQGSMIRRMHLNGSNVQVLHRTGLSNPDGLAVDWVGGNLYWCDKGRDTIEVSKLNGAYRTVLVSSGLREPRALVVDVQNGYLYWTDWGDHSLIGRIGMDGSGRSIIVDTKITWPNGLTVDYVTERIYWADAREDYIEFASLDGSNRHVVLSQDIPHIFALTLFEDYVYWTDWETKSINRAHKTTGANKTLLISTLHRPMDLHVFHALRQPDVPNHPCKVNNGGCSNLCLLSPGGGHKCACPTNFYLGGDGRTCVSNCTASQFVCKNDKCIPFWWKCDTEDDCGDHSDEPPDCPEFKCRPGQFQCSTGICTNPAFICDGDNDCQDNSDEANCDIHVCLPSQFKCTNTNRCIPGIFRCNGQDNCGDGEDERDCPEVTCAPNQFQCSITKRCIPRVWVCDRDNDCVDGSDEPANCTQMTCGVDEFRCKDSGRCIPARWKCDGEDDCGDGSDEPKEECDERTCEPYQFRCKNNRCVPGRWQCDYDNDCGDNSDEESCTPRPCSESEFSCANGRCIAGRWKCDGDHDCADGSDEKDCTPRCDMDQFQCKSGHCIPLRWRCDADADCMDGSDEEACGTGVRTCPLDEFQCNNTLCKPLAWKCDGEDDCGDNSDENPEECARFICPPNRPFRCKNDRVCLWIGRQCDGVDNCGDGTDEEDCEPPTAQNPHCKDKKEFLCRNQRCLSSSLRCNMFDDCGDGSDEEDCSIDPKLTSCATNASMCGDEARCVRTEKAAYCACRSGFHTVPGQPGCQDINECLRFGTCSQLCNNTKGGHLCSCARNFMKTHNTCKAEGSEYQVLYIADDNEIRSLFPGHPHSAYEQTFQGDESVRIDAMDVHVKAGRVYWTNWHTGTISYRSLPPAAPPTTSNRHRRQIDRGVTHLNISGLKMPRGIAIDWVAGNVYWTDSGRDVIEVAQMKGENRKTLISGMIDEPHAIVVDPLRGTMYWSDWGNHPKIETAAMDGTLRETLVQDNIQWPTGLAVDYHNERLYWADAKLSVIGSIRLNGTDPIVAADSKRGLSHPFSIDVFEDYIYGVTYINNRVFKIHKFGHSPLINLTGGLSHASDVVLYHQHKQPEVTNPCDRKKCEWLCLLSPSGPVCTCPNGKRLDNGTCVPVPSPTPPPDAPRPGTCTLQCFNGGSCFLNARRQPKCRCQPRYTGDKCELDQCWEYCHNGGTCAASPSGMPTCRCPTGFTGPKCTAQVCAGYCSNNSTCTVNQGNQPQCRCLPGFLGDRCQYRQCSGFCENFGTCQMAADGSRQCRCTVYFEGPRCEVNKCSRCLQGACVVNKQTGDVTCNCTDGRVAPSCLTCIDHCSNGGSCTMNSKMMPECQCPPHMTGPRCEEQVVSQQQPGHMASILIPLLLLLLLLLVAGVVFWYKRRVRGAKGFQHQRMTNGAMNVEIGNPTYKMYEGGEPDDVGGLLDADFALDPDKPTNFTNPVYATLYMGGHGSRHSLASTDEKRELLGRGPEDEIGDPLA
UniProt Q8VI56, residues 21-1905: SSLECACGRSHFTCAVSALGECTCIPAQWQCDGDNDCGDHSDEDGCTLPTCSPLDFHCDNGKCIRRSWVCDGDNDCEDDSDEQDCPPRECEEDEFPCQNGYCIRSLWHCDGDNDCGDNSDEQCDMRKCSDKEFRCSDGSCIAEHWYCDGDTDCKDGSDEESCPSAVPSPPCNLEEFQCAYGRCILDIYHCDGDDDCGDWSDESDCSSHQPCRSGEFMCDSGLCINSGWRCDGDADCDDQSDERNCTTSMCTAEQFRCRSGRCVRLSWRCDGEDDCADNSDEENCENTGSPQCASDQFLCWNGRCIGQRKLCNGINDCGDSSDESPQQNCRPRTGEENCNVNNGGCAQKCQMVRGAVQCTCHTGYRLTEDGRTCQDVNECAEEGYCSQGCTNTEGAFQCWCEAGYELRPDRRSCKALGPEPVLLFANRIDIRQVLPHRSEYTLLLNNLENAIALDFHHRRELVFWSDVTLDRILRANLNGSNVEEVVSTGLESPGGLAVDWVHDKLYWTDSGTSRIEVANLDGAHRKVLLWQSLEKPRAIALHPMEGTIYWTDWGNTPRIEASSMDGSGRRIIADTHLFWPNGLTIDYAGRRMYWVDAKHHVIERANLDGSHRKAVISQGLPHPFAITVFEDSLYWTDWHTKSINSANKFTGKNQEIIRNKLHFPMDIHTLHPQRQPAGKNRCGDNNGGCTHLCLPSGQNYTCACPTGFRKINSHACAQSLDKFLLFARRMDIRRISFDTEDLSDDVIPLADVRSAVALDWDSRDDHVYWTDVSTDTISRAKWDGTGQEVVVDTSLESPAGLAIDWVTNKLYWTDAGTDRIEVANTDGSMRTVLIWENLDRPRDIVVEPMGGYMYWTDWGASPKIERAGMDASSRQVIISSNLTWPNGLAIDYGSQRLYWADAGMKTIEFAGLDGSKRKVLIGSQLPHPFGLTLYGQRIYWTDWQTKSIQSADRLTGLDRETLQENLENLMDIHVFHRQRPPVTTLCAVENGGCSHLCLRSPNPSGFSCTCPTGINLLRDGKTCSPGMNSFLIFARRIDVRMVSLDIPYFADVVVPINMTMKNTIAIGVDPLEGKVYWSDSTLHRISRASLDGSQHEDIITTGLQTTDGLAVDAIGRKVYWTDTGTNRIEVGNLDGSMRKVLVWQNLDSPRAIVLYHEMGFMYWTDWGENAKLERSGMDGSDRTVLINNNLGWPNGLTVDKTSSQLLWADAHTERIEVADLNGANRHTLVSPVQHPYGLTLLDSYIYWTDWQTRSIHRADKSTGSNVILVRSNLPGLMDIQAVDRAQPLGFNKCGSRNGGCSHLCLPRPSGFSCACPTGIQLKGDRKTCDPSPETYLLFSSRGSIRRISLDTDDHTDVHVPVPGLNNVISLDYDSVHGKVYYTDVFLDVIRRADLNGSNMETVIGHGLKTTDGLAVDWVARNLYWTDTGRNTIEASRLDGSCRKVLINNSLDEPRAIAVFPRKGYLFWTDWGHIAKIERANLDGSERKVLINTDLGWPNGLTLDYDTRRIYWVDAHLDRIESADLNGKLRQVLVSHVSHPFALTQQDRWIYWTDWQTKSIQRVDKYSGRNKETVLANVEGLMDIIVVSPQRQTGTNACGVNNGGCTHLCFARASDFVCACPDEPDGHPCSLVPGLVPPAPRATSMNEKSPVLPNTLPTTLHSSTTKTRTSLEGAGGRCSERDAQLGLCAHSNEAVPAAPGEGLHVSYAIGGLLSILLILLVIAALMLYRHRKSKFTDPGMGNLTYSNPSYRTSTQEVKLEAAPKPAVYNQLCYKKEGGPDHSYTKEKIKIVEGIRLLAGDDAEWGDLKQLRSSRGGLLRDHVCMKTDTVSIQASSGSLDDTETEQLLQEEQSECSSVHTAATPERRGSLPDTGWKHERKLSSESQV

T1: full length APP expressed on HEK293T cells, P12023
T1 chain: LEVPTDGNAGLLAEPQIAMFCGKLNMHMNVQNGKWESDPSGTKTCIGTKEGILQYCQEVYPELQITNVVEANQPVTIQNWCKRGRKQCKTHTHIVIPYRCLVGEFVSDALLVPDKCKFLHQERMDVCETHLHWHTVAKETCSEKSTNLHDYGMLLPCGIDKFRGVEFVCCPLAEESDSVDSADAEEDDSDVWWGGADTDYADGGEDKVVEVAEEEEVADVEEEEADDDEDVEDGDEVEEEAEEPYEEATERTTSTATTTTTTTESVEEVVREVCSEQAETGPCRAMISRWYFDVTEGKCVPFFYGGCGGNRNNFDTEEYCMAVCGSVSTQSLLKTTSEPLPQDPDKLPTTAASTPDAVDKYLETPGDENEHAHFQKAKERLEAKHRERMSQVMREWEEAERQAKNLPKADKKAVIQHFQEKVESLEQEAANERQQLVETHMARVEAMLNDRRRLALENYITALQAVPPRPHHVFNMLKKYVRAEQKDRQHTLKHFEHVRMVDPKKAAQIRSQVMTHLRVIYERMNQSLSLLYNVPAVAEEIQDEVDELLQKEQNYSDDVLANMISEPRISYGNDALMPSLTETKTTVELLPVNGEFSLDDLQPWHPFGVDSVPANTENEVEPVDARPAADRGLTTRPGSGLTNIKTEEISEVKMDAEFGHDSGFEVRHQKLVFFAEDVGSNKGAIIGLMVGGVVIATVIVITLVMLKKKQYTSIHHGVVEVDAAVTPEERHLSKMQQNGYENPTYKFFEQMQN

B1: MuSK (muscle-specific tyrosine kinase; endogenous, mouse embryonic muscle) (receptor, UniProt Q61006 22-868)
chain: EKLPKAPVITTPLETVDALVEEVATFMCAVESYPQPEISWTRNKILIKLFDTRYSIRENGQLLTILSVEDSDDGIYCCIANNGVGGAVESCGALQVKMKPKITRPPINVKIIEGLKAVLPCTTMGNPKPSVSWIKGDNALRENSRIAVLESGSLRIHNVQKEDAGQYRCVAKNSLGTAYSKLVKLEVEVFARILRAPESHNVTFGSFVTLRCTAIGIPVPTISWIENGNAVSSGSIQESVKDRVIDSRLQLFITKPGLYTCIATNKHGEKFSTAKAAATVSIAEWSKSQKDSQGYCAQYRGEVCDAVLAKDALVFFNTSYRDPEDAQELLIHTAWNELKAVSPLCRPAAEALLCNHLFQECSPGVVPTPMPICREYCLAVKELFCAKEWQAMEGKAHRGLYRSGMHLLPVPECSKLPSMHRDPTACTRLPYLDYKKENITTFPSITSSRPSADIPNLPASTSSFAVSPAYSMTVIISIVSSFALFALLTIATLYCCRRRKEWKNKKRESTAVTLTTLPSELLLDRLHPNPMYQRMPLLLNPKLLSLEYPRNNIEYVRDIGEGAFGRVFQARAPGLLPYEPFTMVAVKMLKEEASADMQADFQREAALMAEFDNPNIVKLLGVCAVGKPMCLLFEYMAYGDLNEFLRSMSPHTVCSLSHSDLSTRARVSSPGPPPLSCAEQLCIARQVAAGMAYLSERKFVHRDLATRNCLVGETMVVKIADFGLSRNIYSADYYKADGNDAIPIRWMPPESIFYNRYTTESDVWAYGVVLWEIFSYGLQPYYGMAHEEVIYYVRDGNILACPENCPLELYNLMRLCWSKLPADRPSFCSIHRILQRMCERAEGTVGV
B2: full length APP expressed on HEK293T cells, P12023 18-770 (protein)
chain: T1 chain

What was measured:
[1] = target: LRP1 (endogenous, mouse embryonic muscle) (mouse (endogenous in embryonic muscle)) (UniProt Q91ZX7); test: co-IP; E14.5 mouse hind limb muscle extract (PBS, 5 mM EDTA, 5 mM EGTA, 1% digitonin); anti-LRP4, anti-ApoER2 or anti-LRP1 overnight at 4°C, Protein A Dynabeads; immunoblot
[2] = target: Apoer2 (endogenous, mouse embryonic muscle) (mouse (endogenous in embryonic muscle)) (UniProt Q924X6); test: as above
[3] = target: LRP4 (endogenous, mouse embryonic muscle) (mouse (endogenous in embryonic muscle)) (UniProt Q8VI56); test: as above
[4] = target: T1, full length APP expressed on HEK293T …; test: cell aggregation assay; HEK293T cells expressing APP (green) and LRP4 (red) mixed in suspension in aggregation buffer with CaCl2, 30 min, 37°C; aggregates >3000 µm^2 scored; settings: remark: other sources report otherwise

Row | binding [1] | binding [2] | binding [3] | binding [4] | Binder
1 | no binding | no binding | binds |  | B1
2 |  |  |  | no binding | B2
